Measured values from PubChem BioAssay AID2147 (National Center for Advancing Translational Sciences (NCATS), 2009).
“And” between values parts separate entries of the source, which are not always exact repeats. Equal entries are not always repeated. Screen size: about 230,000 compounds; about 3,600 (1.6%) were called active. Inconclusive means that the source gave no clear call. Such entries were picked first, then a sample of the others. Calls follow the shape of the dose curve; as a rule, active = well fitted inhibition curve with a large enough effect (not every such curve was filed as active); inconclusive = small, poorly fitted or top-dose-only effect, or another doubt; inactive = no such curve, though single readings can be large or run the other way. Potencies beside an inconclusive call are fits to weak or partial responses and may not hold up. Some structures have more than one record in an assay (separate samples or runs), and their calls can disagree.

target: Lysine-specific demethylase 4E (Homo sapiens) (UniProt B2RXH2); assay: qHTS Assay for Inhibitors of Human Jumonji Domain Containing 2E (JMJD2E); conditions: JMJD2E catalytic domain, FDH-coupled NADH fluorescence (FDH is formaldehyde dehydrogenase); series mostly up to 57.1 µM; activity change, negative = inhibition: at the top concentration
Also: nearly all actives have a fitted effect of over 50% in size.
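For activity change, negative = inhibition in this document: 0% = wells with enzyme and -100% = buffer wells without enzyme.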
Potency is read from the fitted curve at half-maximal effect; tags tell the direction and shape of the fitted curve.

Sequence of UniProt B2RXH2 (B2RXH2 whole entry, looked up, the tested form may be a part): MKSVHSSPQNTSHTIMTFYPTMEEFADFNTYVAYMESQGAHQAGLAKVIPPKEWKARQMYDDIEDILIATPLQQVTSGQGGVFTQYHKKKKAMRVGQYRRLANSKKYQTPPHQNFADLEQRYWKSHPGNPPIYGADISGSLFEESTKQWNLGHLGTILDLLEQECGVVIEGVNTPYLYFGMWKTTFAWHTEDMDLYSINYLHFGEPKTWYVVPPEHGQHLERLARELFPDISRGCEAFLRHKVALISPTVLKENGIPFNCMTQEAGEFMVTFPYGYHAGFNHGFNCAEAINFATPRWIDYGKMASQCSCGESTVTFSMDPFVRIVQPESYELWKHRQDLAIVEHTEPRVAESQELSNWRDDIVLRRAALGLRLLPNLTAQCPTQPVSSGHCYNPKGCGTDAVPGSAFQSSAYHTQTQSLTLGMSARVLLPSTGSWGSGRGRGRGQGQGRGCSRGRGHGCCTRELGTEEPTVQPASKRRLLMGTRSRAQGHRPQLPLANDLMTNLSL

SMILES | Potency | activity change, negative = inhibition
CCN(CC)C(=O)c1c[nH]c2ccc(S(=O)(=O)Nc3cc(C)cc(C)c3)cc2c1=O | active: 31.6 µM | 
CCOc1ccccc1NC(=O)CCC(=O)Nc1ccc2nc(N3CCN(C)CC3)cc(C)c2c1 | inconclusive: 31.6 µM [inhibitor, partial curve] | 
Nc1nc(-c2cccc(F)c2)cs1 | inconclusive: 31.6 µM [inhibitor, partial curve] | 
O=C1CN(c2cc(Cl)cc(Cl)c2)C(=O)CN1/N=C/c1cccnc1 | inconclusive: 8.91 µM [inhibitor, single point] | 
COCCN(CCOC)S(=O)(=O)c1ccc(/C(O)=C(\C#N)c2nc3ccccc3[nH]2)cc1 | inconclusive: 35.5 µM [inhibitor, single point] | 
C=CCn1c(SCC(=O)N2CCc3ccccc3C2)nc2sc(CC)cc2c1=O | inconclusive: 31.6 µM [inhibitor, single point] | 
O=C(c1nnsc1S(=O)c1ccc(Cl)cc1)N1CCOCC1 (stereo unspecified) |  | inactive: 10.8%
COCCSc1ccccc1C(=O)NCCCn1ccnc1 |  | inactive: 4.93%
CC1C/C(=N\NC(N)=S)c2cc(Cl)ccc2S1 (stereo unspecified) | inconclusive: 31.6 µM [inhibitor, partial curve] | 
CCOC(=O)C1=C(C)OC(N)=C(C#N)C1c1cc2c(cc1Br)OCO2 (stereo unspecified) | inconclusive: 31.6 µM [inhibitor, single point] | 
CN1CCc2c(sc(/N=C/c3ccco3)c2C(N)=O)C1 | inconclusive: 31.6 µM [inhibitor, partial curve] | 
Cc1cccc(C2CN(C)CCc3c2cc(O)c(O)c3Cl)c1 (stereo unspecified) | active: 12.6 µM | 
CC1(C)O[C@H]2OC([C@H](O)CON3C(=O)c4ccccc4C3=O)[C@H](O)[C@H]2O1 (stereo partly specified) |  | inactive: -0.472%
COc1ccc(-c2ccc(/C=N/NC(=O)Cc3nnc(N)s3)o2)cc1Cl | inconclusive: 14.1 µM [inhibitor, partial curve] | 
COc1ccc(S(=O)(=O)N=C2C=C(C)C(=O)C(C)=C2)cc1 |  | inactive: 1.93%
O=C(Cn1cncn1)N/N=C/c1cc([N+](=O)[O-])ccc1O | active: 25.1 µM | 
FC(F)(F)c1cnc(C(c2ccccn2)c2ncn[nH]2)c(Cl)c1 (stereo unspecified) | active: 25.1 µM | 
COc1ccc(NC(=O)CN2CCN(CC(=O)Nc3ccccc3F)CC2)c(OC)c1 |  | inactive: 10.1%
O=C(Nc1cccc2ccccc12)N1CCN(c2ccccc2)CC1 | inconclusive: 14.1 µM [inhibitor, partial curve] | 
Cc1ccc(C(O)C2=CCCC2=O)cc1 (stereo unspecified) |  | inactive: -6.96%
Cn1c(N)c(C(=O)COC(=O)c2cc(-c3ccccc3)nc3ccccc23)c(=O)n(Cc2ccccc2)c1=O | inconclusive: 35.5 µM [inhibitor, single point] and inconclusive: 39.8 µM [inhibitor, single point] | 
Cc1ccc2cccc(OCC(=O)N3CCc4ccccc43)c2n1 | inconclusive: 39.8 µM [inhibitor, single point] | 
O=C(N/N=C/c1c[nH]c2ccccc12)c1sc2ccccc2c1Cl |  | inactive: -29.3%
COc1ccccc1NC(=O)Nc1sccc1-c1nc2ccccc2s1 | inconclusive: 25.1 µM [inhibitor, partial curve] | 

SMILES | Potency | activity change, negative = inhibition
O=C(NCCCN1CCCC1)[C@H](CSCc1ccccc1)N1Cc2ccccc2C1=O | inconclusive: 20 µM [inhibitor, partial curve] | 
Cc1nc(N=Nc2cc(S(=O)(=O)O)c3cc([N+](=O)[O-])cc(S(=O)(=O)O)c3c2)c(COP(=O)(O)O)c(C=O)c1O | active: 7.94 µM | 
Cc1ccc(-n2nc3c(n2)/C(=N/O)CC/C3=N\O)cc1 | inconclusive: 31.6 µM [inhibitor, single point] | 
CN(Cc1nccn1C)C(=O)CC1C(=O)NCCN1Cc1cccc(Oc2ccccc2)c1 (stereo unspecified) | inconclusive: 39.8 µM [inhibitor, single point] | 
CS(=O)(=O)N(CC(=O)Nc1cccc([N+](=O)[O-])c1)c1ccccc1 | inconclusive: 8.91 µM [inhibitor, single point] | 
Cc1ccc([N+](=O)[O-])cc1S(=O)(=O)N(C(=O)c1ccncc1)c1ccc2oc3c(c2c1)CCCC3 |  | inactive: -0.535%
CCN(CC)C(=O)C1CCCN(Cc2ccc(OC)c(C)c2C)C1 (stereo unspecified) | inconclusive: 39.8 µM [inhibitor, single point] | 
N#Cc1nc(-c2ccco2)oc1N1CCN(C(c2ccccc2)c2ccccc2)CC1 | inconclusive: 25.1 µM [inhibitor, partial curve] | 
CCOC(=O)Cn1nc(/C=C/c2ccccc2)ccc1=O | inconclusive: 25.1 µM [inhibitor, partial curve] | 
Nn1c(Cc2ccccc2)n[nH]c1=S |  | inactive: -0.541%
Cn1ccnc1C(=O)c1ccc(NN)c([N+](=O)[O-])c1 |  | inactive: -26.8%
CCOc1ccc2[nH]c(=O)c(CN(CCOC)C(=O)N3CCOCC3)cc2c1 | inconclusive: 31.6 µM [inhibitor, partial curve] | 
O=C(Cn1c(=O)c(=O)n(Cc2ccccc2)c2ccc(Cl)cc21)Nc1cc(F)ccc1F | inconclusive: 39.8 µM [inhibitor, single point] | 
CC(=O)c1c(C)[nH]c(C(=O)CSc2ccc(F)cc2)c1C |  | inactive: 5.23%
COc1ccc(CNC(=O)C2COc3ccccc3O2)cc1 (stereo unspecified) |  | inactive: 7.03%
CCCCC1=CC2=CC(=O)C(C)(OC(=O)CC)C(=O)C2=CN1Cc1ccc2c(c1)OCO2 (stereo unspecified) | active: 17.8 µM | 
O=C(NNC(=S)Nc1ccccc1)c1cc(-c2cccnc2)nc2ccccc12 | inconclusive: 39.8 µM [inhibitor, single point] | 
CCN(CC)C(=O)c1ccccc1NC(=O)CN1C(=O)c2ccccc2C1=O |  | inactive: -4.46%
COc1ccc(NC(=O)CSc2nnc3c4c(nc(-c5ccccc5)n23)CC(C)(C)OC4)cc1 | inconclusive: 31.6 µM [inhibitor, partial curve] | 
Cc1ccc(C)c(Cn2c(O)c(N=NC(=S)Nc3ccccc3F)c3ccccc32)c1 |  | inactive: -3.5%
CC1(C)CC(=O)C(CC(=O)NC(=O)NCc2ccccc2)=C(O)C1 | inconclusive: 39.8 µM [inhibitor, single point] | 
COc1ccc(Cl)cc1-c1csc(N)n1 | inconclusive: 39.8 µM [inhibitor, single point] | 
COc1cccc(C2c3[nH]c4ccccc4c3CCN2CCCn2cccn2)c1 (stereo unspecified) | inconclusive: 31.6 µM [inhibitor, single point] | 
CC(C)(C)OC(=O)NNC(=O)Nc1ccccc1C(F)(F)F |  | inactive: 6.62%

SMILES | Potency | activity change, negative = inhibition
Cc1cc(/C=C2/NC(=O)NC2=O)c(C)n1-c1cccnc1 | inconclusive: 31.6 µM [inhibitor, single point] | 
COC(=O)c1ccc(NCC(=O)Nc2cc(C)cc(C)c2)cc1 | inconclusive: 28.2 µM [inhibitor, single point] | 
CC1(C)CC(=O)C=C(NNC(=O)c2cccnc2)C1 | inconclusive: 39.8 µM [inhibitor, single point] | 
O=C(N/C(=C/c1ccc(Br)cc1)c1nc2ccccc2[nH]1)c1ccco1 | inconclusive: 28.2 µM [inhibitor, single point] | 
CC1=C(C(=O)Nc2cccnc2)C(c2ccc3c(c2)OCO3)C2=C(CCCC2=O)N1 (stereo unspecified) | inconclusive: 31.6 µM [inhibitor, partial curve] | 
O=c1c2ccc(Cl)cc2nc(-c2cccc(C(F)(F)F)c2)n1O | active: 31.6 µM | 
COc1ccc(-[n+]2c(C)cc(/C=C3\Sc4ccccc4N3C)cc2C)cc1 |  | inactive: -29.9%
CCN(CC)c1ccc(/C=N/NC(=O)c2ccc([N+](=O)[O-])cc2)cc1 |  | inactive: 4.52%
CC1CC(C)(C)NC(=S)N1CCCC(=O)Nc1ccc2c(c1)OCCO2 (stereo unspecified) | inconclusive: 39.8 µM [inhibitor, single point] | 
Fc1ccc(COc2cccc(CNCc3ccncc3)c2)cc1 |  | inactive: -10.2%
O=C(Nc1nccs1)c1sc2ccccc2c1Cl | inconclusive: 35.5 µM [inhibitor, single point] | 
CCN1CCN(C(c2ccc(OC)cc2)C(O)C(=O)c2c[nH]c3ccccc23)CC1 (stereo unspecified) |  | inactive: 0.0987%
COc1cc2c(cc1NC(=O)Nc1ccccc1)oc1ccccc12 | inconclusive: 31.6 µM [inhibitor, single point] | 
Cc1cc(C)c2c(N)c(C(=O)N3CCCCCC3)sc2n1 | inconclusive: 39.8 µM [inhibitor, single point] | 
CCOC(=O)Nc1ccc2c(C)cc(=O)oc2c1 | inconclusive: 28.2 µM [inhibitor, partial curve] | 
CCCCCn1c(-c2ccco2)nc2nc3ccccc3nc21 | inconclusive: 28.2 µM [inhibitor, partial curve] | 
O=C(NC(=S)Nc1ccc(CN2CCOCC2)cc1)c1ccco1 |  | inactive: 0.0924%
COc1ccc(-c2nc(CSCC(=O)N3CCc4ccccc4C3)c(C)o2)cc1OC | inconclusive: 35.5 µM [inhibitor, single point] | 
CCCNC(=O)c1oc2ccc3c(c2c1C)C(=O)CC(C)(C)O3 | inconclusive: 31.6 µM [inhibitor, partial curve] | 
NC(=S)c1cc2ccc(O)cc2oc1=O | inconclusive: 12.6 µM [inhibitor, partial curve] | 
CCOC(=O)c1cnc2c(C#N)c(C)nn2c1C | inconclusive: 28.2 µM [inhibitor, partial curve] | 
O=C(Nc1cccc(Cl)c1N1CCCC1)c1cccc(-c2cc3ccccc3oc2=O)c1 | inconclusive: 15.8 µM [inhibitor, partial curve] | 
COCCCn1c(=S)[nH]c2c(sc3ccccc32)c1=O | inconclusive: 22.4 µM [inhibitor, single point] | 
